# From PubChem BioAssay AID624173 (National Center for Advancing Translational Sciences (NCATS), 2012)
# Out of some 410,000 compounds screened, about 490 (0.12%) were called active. This list was built around the results that the source calls inconclusive (neither active nor inactive); the mix of calls is not that of the screen. Calls come from the whole dose curve; as a rule, active = well fitted inhibition curve with a large enough effect; inconclusive = small, poorly fitted or top-dose-only effect; inactive = flat fitted curve, though single readings scatter. Potencies beside an inconclusive call are fits to weak or partial responses and may not hold up.
# Target: pyruvate kinase (Trypanosoma brucei) (UniProt Q57TT1)
# Assay: qHTS of Trypanosoma Brucei Inhibitors; note: nearly all actives have a fitted effect of over 50% in size
# Details: TbPYK enzyme, Kinase-Glo Plus ATP luminescence, 45 min; series mostly up to 76.8 µM
# Text: Members of the Trypanosomatidae family of parasitic protozoans cause a spectrum of diseases throughout the tropical and subtropical world. Sleeping sickness, caused by two subspecies of Trypanosoma brucei, is endemic to areas of sub-Saharan Africa, while Chagas' disease, a manifestation of Trypanosoma cruzi infection, is prevalent throughout Central and South America. In addition, many species of Leishmania are responsible for a range of cutaneous and visceral diseases, causing ulcers, destructive lesions and kalaazar, a lethal infection of the viscera. These diseases cause severe public health and economic burdens on populations that are often already caught in a tragic cycle of poverty, poor nutrition and disease. Collectively, parasites of the trypanosomatid family infect 30 million people worldwide (~500 million live in endemic areas), and account for ~130K deaths annually. Existing treatments have developed little in the past 50 years, and suffer from toxicity, poor efficacy and resistance; the goal of this project is to develop lead drugs that will be suitable for entry into pre-clinical trials.
# Glycolysis in axenically cultured T. cruzi, representing the intracellular pathogenic stage, is also essential for these parasites. {Engel, 1987} This project aims to discover and optimize selective inhibitors of the glycolytic enzyme pyruvate kinase (PYK) from Trypanosoma brucei, the parasite that causes sleeping sickness. […] Trypanosomatid PYKs show significant differences from their human counterparts including only 47-50% sequence identity and different allosteric and activation properties.{Callens, 1992} To this end, a qHTS was done against the MLSMR to discover inhibitors.
# NIH Molecular Libraries Probe Production Network [MLPCN]
# NIH Chemical Genomics Center [NCGC]
# PI Name: Malcolm Walkinshaw, University of Edinburgh
# 2 uL of TbPYK/substrate buffer (columns 1-3, 5-48) are dispensed into Greiner white solid bottom 1536-well assay plates; column 4 receives only TEA buffer as 0x TbPYK controls. Compounds are then transferred via Kalypsys pin tool equipped with 1536-pin array (10 nL slotted pins, V&P Scientific, San Diego, CA). Following addition of compound, 2 uL of ADP (130 uM final concentration, all columns) is added to initiate the reaction. The plates are then incubated at room temperature for 45 minutes. Kinase-Glo Plus reagent is added (3 uL) and plates incubated for 10 minutes, before being transferred to a ViewLux high-throughput CCD imager (PerkinElmer) wherein single end-point measurements of luminescence are acquired using a clear filter. All reagents are diluted in an assay buffer consisting of 50 mM TEA (pH 7.2), 100 mM KCl, 10 mM MgCl2, 0.05% BSA and 0.01% Tween-20.
# All screening operations will be performed on a fully integrated robotic system (Kalypsys, San Diego, CA) containing one RX-130 and two RX-90 anthropomorphic robotic arms (Staeubli, Duncan, SC). Library plates will be screened starting from the lowest and proceeding to the highest concentration. Vehicle-only plates, with DMSO being pin-transferred to columns 5-48, will be inserted uniformly at the beginning and the end of each library in order to monitor and record any shifts in the background, which can be affected by reagent dispensers or loss in enzyme activity over time. Screening data will be corrected, normalized, and concentration-effect relationships will be derived by using publicly-available curve fitting algorithms developed in-house (http://ncgc.nih.gov/pub/openhts).
# Potency is the fitted concentration of half-maximal effect; tags give direction and shape of the fitted curve.
row,SMILES,Potency
1,CN(C)c1ccc(NC(=S)c2ccccn2)cc1,"inconclusive: 15.8 µM [inhibitor, partial curve]"
2,FC(F)(F)c1ccccc1-n1c(CN2CCCCC2)n[nH]c1=S,"inconclusive: 12.6 µM [inhibitor, partial curve]"
3,CC(C)CCn1nnnc1C(C(C)C)N1CCC(C(N)=O)CC1 (stereo unspecified),inactive
4,Nc1c(Cl)cc(-c2[nH]c3cc(C(=O)NCCO)ccc3c(=O)c2O)cc1Cl,inactive
5,CC(=O)NN1C(=O)/C(=C/c2ccc(Br)o2)SC1=S,"inconclusive: 22.4 µM [inhibitor, partial curve, poor fit]"
6,O=[N+]([O-])c1cccc(/C=N/n2c(C3CCCCC3)n[nH]c2=S)c1,"inconclusive: 12.6 µM [inhibitor, partial curve]"
7,O=C(O)CCn1cc(C=C2C(=O)NC(=S)NC2=O)c(-c2cccc(Cl)c2)n1,active: 11.2 µM
8,CC1=CC(C)(C)Nc2ccc(OS(=O)(=O)c3ccc(C)cc3)cc21,inactive
9,CC1CCN(C(=O)CS(=O)(=O)Cc2ccccc2)CC1,inactive
10,O=[N+]([O-])c1cccc(-c2n[nH]c(=S)n2Cc2ccccc2)c1,"inconclusive: 2 µM [inhibitor, full curve, poor fit]"
11,Cc1cc(C)c(NC(=O)CSCc2c(C)noc2C)c(Cl)c1,inactive
12,Cc1ccc(/C=C/C(=O)Nc2cc(=O)n(C)c(=O)n2C)o1,"inconclusive: 28.2 µM [inhibitor, single point]"
13,COc1ccccc1CN(Cc1cc2cc3c(cc2[nH]c1=O)OCCO3)Cc1nnnn1Cc1ccco1,"inconclusive: 50.1 µM [inhibitor, single point]"
14,CN1CCN(c2ccc(-c3nc(-c4ccccc4)no3)cc2[N+](=O)[O-])CC1,inactive
15,COc1ccc(OCc2n[nH]c(=S)n2-c2ccc(C)cc2)cc1,"inconclusive: 25.1 µM [inhibitor, partial curve, poor fit]"
16,O=C(CC12CC3CC(CC(C3)C1)C2)N/N=C/c1ccncc1,"inconclusive: 5.01 µM [inhibitor, partial curve, poor fit]"
17,COc1cc(S(=O)(=O)N2CCOCC2)cc(C(=O)NCC(c2cccs2)N2CCOCC2)c1OC (stereo unspecified),inactive
18,Cc1cc(C)c2nc(NNC(=O)c3ccc(S(=O)(=O)N4CC(C)CC(C)C4)cc3)sc2c1 (stereo unspecified),"inconclusive: 31.6 µM [inhibitor, single point]"
19,O=C(/C=C/c1ccccc1[N+](=O)[O-])Nc1ccc(S(=O)(=O)Nc2ncccn2)cc1,inactive
20,Cn1c(-c2cnn(-c3ccccc3)c2N)n[nH]c1=S,"inconclusive: 31.6 µM [inhibitor, partial curve, poor fit]"
21,Cc1nc2c3cc(Cl)ccc3n(CCN3CCCCC3)c2s1,"inconclusive: 31.6 µM [inhibitor, single point]"
22,COc1ccccc1NC(=O)C(=N\O)/C(C)=N/O,"inconclusive: 35.5 µM [inhibitor, single point]"
23,Cc1cccc(N=C2NN=C(c3c(C)[nH]c4ccccc34)CS2)c1,"inconclusive: 31.6 µM [inhibitor, single point]"
24,O=c1c(-c2ccc(F)cc2)[n+]([O-])c2ccccc2n1OCc1ccccn1,"inconclusive: 31.6 µM [inhibitor, single point]"

row,SMILES,Potency
1,CCn1c(-c2cc3c(C(F)(F)F)nn(C)c3s2)n[nH]c1=S,"inconclusive: 3.55 µM [inhibitor, partial curve]"
2,Cc1ccc(NC(=O)c2ccc(Cl)c(N3C(=O)C=CC3=O)c2)cc1,"inconclusive: 11.2 µM [inhibitor, full curve, poor fit]"
3,CCOc1ccc(NC(=O)c2cccc3c(=O)c4c([nH]c23)CCCC4)cc1,inactive
4,COc1cc(N2CCOCC2)ccc1/C=C1\C(=O)NC(=O)N(Cc2ccc3c(c2)OCO3)C1=O,"inconclusive: 39.8 µM [inhibitor, single point]"
5,CCCOc1ccc2cc(-c3ccccn3)c(=O)oc2c1,"inconclusive: 15.8 µM [inhibitor, partial curve, poor fit]"
6,CC(=O)Nc1cccc(NC(=O)CSc2nc(C)c(C)c(C)c2C#N)c1,"inconclusive: 39.8 µM [inhibitor, single point]"
7,CN(CC(=O)NCc1ccc(Cl)cc1)S(=O)(=O)c1ccc2c(c1)c(=O)n(C)c(=O)n2C,inactive
8,COc1ccccc1/C=C/C=N/n1c(-c2ccc(Cl)cc2)n[nH]c1=S,"inconclusive: 6.31 µM [inhibitor, partial curve, poor fit]"
9,COCCN=C1NN=C(c2ccc(C)c([N+](=O)[O-])c2)CS1,"inconclusive: 31.6 µM [inhibitor, partial curve, poor fit]"
10,Cc1ccc(C)c(-n2c(-c3ccc4c(c3)OCO4)n[nH]c2=S)c1,active: 5.01 µM
11,CC[C@]1(C(=O)OC)[C@H]2C(=O)N(Cc3ccccc3)C(=O)[C@H]2[C@H]2CN(C)C(=NC)N21,inactive
12,CSc1nnc2sc3cc(C)ccc3n12,inactive
13,Cc1ccc(S(=O)(=O)c2nc(-c3ccccc3)oc2NCCN2CCOCC2)cc1,inactive
14,O=C(c1ccco1)N1CCN(C(=O)c2cc3c(s2)-c2ccccc2OC3)CC1,inactive
15,C/C(=N\N1CCCCCC1)c1c(O)n(-c2ccccc2)c(=O)[nH]c1=O,inactive
16,COc1ccc(CCNC(=O)c2ccn[nH]2)cc1OC,"inconclusive: 28.2 µM [inhibitor, single point]"
17,CC1=NN(c2cccc(C(=O)O)c2)C(=O)/C1=C\C=C/c1ccccc1,"inconclusive: 31.6 µM [inhibitor, single point]"
18,Cc1cc(C)n(C(C[N+](=O)[O-])c2ccc(Cl)cc2)n1 (stereo unspecified),"inconclusive: 22.4 µM [inhibitor, partial curve, poor fit]"
19,Cc1ccc(-c2nnc(N(C)C(=O)c3cccnc3)s2)cc1,inactive
20,O=C(/C=C/c1ccc(O)c(O)c1)OC(Cc1ccc(O)c(O)c1)C(=O)O (stereo unspecified),"inconclusive: 31.6 µM [inhibitor, partial curve, poor fit]"
21,O=C(CCCCn1cnc2c(=S)nc[nH]c21)Nc1ccc(C(=O)O)c(O)c1,"inconclusive: 12.6 µM [inhibitor, partial curve]"
22,COc1ccccc1NC(=O)C(C)OC(=O)c1nc2nc(C)cc(C)n2n1 (stereo unspecified),inactive
23,COc1cccc(CNC(=O)Nc2cccs2)c1,inactive
24,COc1ccc(NC(=O)NC(C)C2CC3CCC2C3)cc1 (stereo unspecified),inactive

row,SMILES,Potency
1,Cc1nonc1C(=O)N/N=C/c1ccc(O)cc1O,"inconclusive: 35.5 µM [inhibitor, partial curve]"
2,COc1ccc2ccccc2c1C(=O)/C=C\c1ccoc1,inactive
3,CC1CCCN(C(=S)Nc2ccc(F)cc2)C1 (stereo unspecified),inactive
4,COc1ccc(-n2c(-c3ccc(Br)cc3)n[nH]c2=S)cc1,"inconclusive: 7.08 µM [inhibitor, partial curve, poor fit]"
5,Cc1cc(NC(=O)CSc2ncnc3sccc23)no1,inactive
6,CCCCCCC(=O)N1CCCC(c2nc(-c3cccc(OC)c3)no2)C1 (stereo unspecified),inactive
7,CCOC(=O)c1c(C)c(C(=O)NCCc2ccc(OC)cc2)c(C)n1CC,inactive
8,CC(C)(C)C1CCc2c(sc3c2C(=O)NC(c2ccco2)N3)C1 (stereo unspecified),"inconclusive: 28.2 µM [inhibitor, single point]"
9,O=c1[nH]c2ccccc2n2c(=S)[nH]nc12,"inconclusive: 17.8 µM [inhibitor, partial curve]"
10,c1ccc2c(c1)Cn1c-2nc2ccccc21,"inconclusive: 22.4 µM [inhibitor, partial curve, poor fit]"
11,COc1cc(/C=C2/C(=O)N(c3ccc(C(=O)O)cc3)N=C2C)cc(OC)c1O,"inconclusive: 28.2 µM [inhibitor, partial curve]"
12,Cc1cc(-c2ccc(N=Nc3ccc4c(S(=O)(=O)O)cc(S(=O)(=O)O)c(N)c4c3O)c(C)c2)ccc1N=Nc1ccc2c(S(=O)(=O)O)cc(S(=O)(=O)O)c(N)c2c1O,"inconclusive: 22.4 µM [inhibitor, partial curve]"
13,COc1ccc2c(c1)c(=O)oc1cc(O)ccc12,inactive
14,O=C(CN1CCN(c2ccc(O)cc2)CC1)Nc1ccc(-c2ccccc2)cc1,"inconclusive: 28.2 µM [inhibitor, partial curve]"
15,c1c2c(cc3sc(N4CCCCC4)nc13)OCCO2,"inconclusive: 25.1 µM [inhibitor, partial curve, poor fit]"
16,CCOC(=O)c1ccccc1NC(=O)Cc1c(C(=O)O)c(C)cn1C,inactive
17,Cn1c(=S)[nH]c2scc(-c3cccs3)c2c1=O,"inconclusive: 17.8 µM [inhibitor, partial curve, poor fit]"
18,CN(CCO)c1cc(N2CCC3(CC2)OCCO3)c2nonc2c1[N+](=O)[O-],"inconclusive: 0.891 µM [inhibitor, full curve]"
19,O=C(O)c1c[nH]c(=S)n1-c1ccc(F)cc1,"inconclusive: 7.08 µM [inhibitor, partial curve]"
20,CCn1c(-c2ccco2)n[nH]c1=S,"inconclusive: 25.1 µM [inhibitor, partial curve, poor fit]"
21,Cc1cccc(-c2nnc(SCc3nc4ccccc4[nH]3)n2Cc2ccco2)c1,"inconclusive: 28.2 µM [inhibitor, partial curve, poor fit]"
22,Cc1cc(C)cc(C(=O)Nc2ccc(N3CCCC3)cc2)c1,inactive
23,Cc1cccc([C@@H]2C[C@H]3CN(Cc4cccc(Cl)c4)C(=O)[C@]34CCCN24)n1,"inconclusive: 31.6 µM [inhibitor, single point]"
